Assay results from PMC4336329 (PLoS ONE, 2015).
About 14,000 (4.5%) of roughly 310,000 compounds showed an effect of 50% or more. The effect is printed as a negative number. Some of the results follow.

Target: human ether-à-go-go-related gene (hERG) potassium channel (human, UniProt Q12809)
Assay: primary screen, population patch clamp on CHO cells stably expressing hERG
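Further: peak tail current of the secondary pulse compared with the same well before compound.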

human ether-à-go-go-related gene (hERG) potassium channel, sequence (Q12809 whole entry, looked up): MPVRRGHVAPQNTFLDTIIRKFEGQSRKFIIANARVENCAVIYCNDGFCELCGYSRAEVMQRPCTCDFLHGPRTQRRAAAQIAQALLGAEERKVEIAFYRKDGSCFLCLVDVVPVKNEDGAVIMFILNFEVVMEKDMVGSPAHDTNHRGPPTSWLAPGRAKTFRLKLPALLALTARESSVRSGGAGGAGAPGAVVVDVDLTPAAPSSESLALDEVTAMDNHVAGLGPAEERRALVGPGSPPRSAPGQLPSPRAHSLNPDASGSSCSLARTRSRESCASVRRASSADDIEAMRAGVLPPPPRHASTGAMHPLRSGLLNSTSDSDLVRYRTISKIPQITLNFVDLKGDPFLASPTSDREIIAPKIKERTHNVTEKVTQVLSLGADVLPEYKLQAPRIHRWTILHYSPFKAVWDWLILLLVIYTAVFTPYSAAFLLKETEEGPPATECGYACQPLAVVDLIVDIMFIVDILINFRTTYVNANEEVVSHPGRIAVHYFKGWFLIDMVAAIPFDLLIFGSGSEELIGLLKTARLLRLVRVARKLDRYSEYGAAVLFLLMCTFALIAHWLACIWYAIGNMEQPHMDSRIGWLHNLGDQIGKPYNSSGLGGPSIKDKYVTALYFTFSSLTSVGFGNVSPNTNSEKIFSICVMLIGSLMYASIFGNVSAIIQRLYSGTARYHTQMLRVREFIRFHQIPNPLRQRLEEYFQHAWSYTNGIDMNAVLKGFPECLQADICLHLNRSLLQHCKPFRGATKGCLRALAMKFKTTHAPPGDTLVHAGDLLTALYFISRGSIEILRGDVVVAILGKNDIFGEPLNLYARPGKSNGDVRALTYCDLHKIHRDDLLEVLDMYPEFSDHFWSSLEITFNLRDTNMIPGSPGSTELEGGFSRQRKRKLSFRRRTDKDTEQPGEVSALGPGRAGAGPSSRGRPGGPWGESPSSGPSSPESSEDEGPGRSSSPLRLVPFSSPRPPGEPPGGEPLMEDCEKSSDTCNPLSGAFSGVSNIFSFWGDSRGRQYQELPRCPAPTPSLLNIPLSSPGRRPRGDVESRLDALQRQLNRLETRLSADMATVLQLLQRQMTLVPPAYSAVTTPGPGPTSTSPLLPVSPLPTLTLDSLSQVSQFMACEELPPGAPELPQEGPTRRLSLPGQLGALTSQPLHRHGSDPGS

First: O=C(O)[C@@H]1C[C@H]1[C@@H](NP(=O)(c1ccccc1)c1ccccc1)c1ccccc1
Second: O=C(c1cnn(C(=O)c2ccccc2)c1)c1ccccc1O
The “hERG current change (%, negative = inhibition) at 10uM” value of the first is higher: 2.04% for the first, -14.8% for the second.

Compared with `CCOC(=O)c1cc2sc(C)cc2n1CC(=O)N1CCN(C(=O)c2ccco2)CC1`, `CCN1CCN(C(=O)c2cc3c(s2)-c2c(C)cccc2OC3)CC1` is lower in “hERG current change (%, negative = inhibition) at 10uM” value: -8.61% for the first, -17.8% for the second.

Going from `CCCc1cc(=O)oc2cc(C)c(CN3CCCC3)c(O)c12` to `COCCOC(=O)c1c(C)oc2ccc(O)c(CN3CCC(C)CC3)c12`, the “hERG current change (%, negative = inhibition) at 10uM” value falls from -8.21% to -29.8%.

Going from `COc1cccc(C2CC(c3ccc(Cl)cc3)n3nc(N)nc3N2)c1` (stereo not shown) to `COc1ccc(Nc2nnc(SCC(=O)c3cc4ccccc4o3)s2)cc1`, the “hERG current change (%, negative = inhibition) at 10uM” value rises from -6.36% to 10.3%.

Going from `Cc1nnc(SCC2=C(C(=O)[O-])N3C(=O)[C@@H](NC(=O)Cn4cnnn4)[C@H]3SC2)s1.[Na+]` to `CCOC(=O)/C=c1\s/c(=C\c2ccccc2C)c(=O)n1CC(=O)NCc1ccc2c(c1)OCO2`, the “hERG current change (%, negative = inhibition) at 10uM” value falls from 15.9% to -1.42%.

Compared with `COC(=O)C(Cc1c[nH]c2ccccc12)NC(=O)C(=O)c1c[nH]c2ccccc12` (stereo not shown), `CCOc1ccc(CCNC(=O)COC(=O)c2cc(=O)[nH]c3ccccc23)cc1OCC` is higher in “hERG current change (%, negative = inhibition) at 10uM” value: -14.9% for the first, 16.1% for the second.

Compared with `CCOC(=O)c1[nH]nc(C(=O)c2ccc(Br)cc2)c1O`, `COC(=O)c1ccc(OCC(=O)NC(C)(C)C)cc1` is higher in “hERG current change (%, negative = inhibition) at 10uM” value: 7.67% for the first, 8.24% for the second.

First: O=C(Nc1cccc(C(=O)N2CCCC2)c1)c1ccccc1
Second: Cc1cccc(C(=O)Nc2ccc(O)cc2)c1
The “hERG current change (%, negative = inhibition) at 10uM” value of the first is lower: 2.2% for the first, 12.6% for the second.

First: COc1ccc(NC(=S)N2CCC(N(C)CCN3CCOCC3)CC2)cc1
Second: COc1ccc(NC(=O)N2CCN(c3cccc(C(F)(F)F)c3)CC2)cc1
The “hERG current change (%, negative = inhibition) at 10uM” value of the first is lower: -1.98% for the first, -1.89% for the second.

First: Cc1ccc(-c2cc(C(=O)Nc3cccc(S(=O)(=O)N(C)C)c3)c3ccccc3n2)o1
Second: Cc1ccc(S(=O)(=O)N(C)c2cc(S(=O)(=O)Nc3ccncc3)c(C)cc2C)cc1
The “hERG current change (%, negative = inhibition) at 10uM” value of the first is higher: 13.4% for the first, -2.16% for the second.

Compared with `Cc1cccc(N2CCN(C3=NC(=O)C(=C4CCCCC4)S3)CC2)c1`, `Cc1cccc(-n2c(O)c(/C=N/N3CCOCC3)c(=O)[nH]c2=S)c1` is lower in “hERG current change (%, negative = inhibition) at 10uM” value: 1.64% for the first, -8.45% for the second.

Compared with `O=C(NCCN1CCOCC1)c1cc(=O)[nH]c2ccc(Br)cc12`, `CN(C)CCNC(=O)c1cc(Br)ccc1Cl` is lower in “hERG current change (%, negative = inhibition) at 10uM” value: 7.07% for the first, 3.14% for the second.

Going from `COC(=O)C1=C(N)Oc2cc(C)n(CC3CCCO3)c(=O)c2C1c1ccc(Cl)cc1` (stereo not shown) to `Cc1ccc(C(=O)N/C(=C\c2cccs2)C(=O)NCC2CCCO2)cc1C` (stereo not shown), the “hERG current change (%, negative = inhibition) at 10uM” value rises from -8.41% to 6.35%.

Going from `Cc1cccc(NC(=O)C2CCCN2S(=O)(=O)c2ccc(Cl)cc2)n1` (stereo not shown) to `O=C(NCc1ccc2c(c1)OCO2)C1CCN(S(=O)(=O)c2ccc(F)cc2)CC1`, the “hERG current change (%, negative = inhibition) at 10uM” value rises from -11.5% to 5.43%.

First: COCCN(CCOC)C(=O)c1ccc(NS(=O)(=O)c2ccc3c(c2)OCCO3)cc1
Second: CCN1C(=O)C2(/C(=C(\O)c3ccc4c(c3)OCCO4)C(=O)C(=O)N2CCCOC)c2ccccc21 (stereo not shown)
The “hERG current change (%, negative = inhibition) at 10uM” value of the first is lower: 10.4% for the first, 22.8% for the second.

First: CC(C)(C)OC(=O)COc1cc(OCC(=O)OC(C)(C)C)c2c(=O)cc(-c3ccccc3)oc2c1
Second: CCCc1cc(=O)oc2cc(OCC(=O)NCCCn3ccnc3)ccc12
The “hERG current change (%, negative = inhibition) at 10uM” value of the first is higher: -15% for the first, -47.1% for the second.

Going from `O=C(CN1C(=O)c2ccccc2C1=O)Nc1ccc(S(=O)(=O)N2CCOCC2)cc1` to `COc1cc(C(C)=O)ccc1OC(C)C(=O)Nc1ccc(S(=O)(=O)N2CCCC2)cc1` (stereo not shown), the “hERG current change (%, negative = inhibition) at 10uM” value rises from -16.9% to 9.66%.

Compared with `CCN(CC)S(=O)(=O)c1cccc(C(=O)Nc2cc(C)on2)c1`, `O=C(Nc1ccon1)c1cccc(C(F)(F)F)c1` is lower in “hERG current change (%, negative = inhibition) at 10uM” value: 4.77% for the first, 0.626% for the second.

Compared with `Cc1cc(C(=O)NNC(=O)Nc2ccccc2)no1`, `Cc1ccc(NC(=O)C2=C(O)c3ccccc3N(C)S2(=O)=O)cc1` is higher in “hERG current change (%, negative = inhibition) at 10uM” value: 2.51% for the first, 13.4% for the second.

First: CCOc1cccc(-c2nn(-c3ccccc3)cc2/C=C(/C#N)C(=O)NCCCn2ccnc2)c1
Second: Cc1nnc(SCC(=O)NCCOc2ccc(Cl)cc2)n1-c1ccccc1
The “hERG current change (%, negative = inhibition) at 10uM” value of the first is lower: -36.1% for the first, -24.7% for the second.

Compared with `COc1ccc(C(CNC(=O)CCNS(=O)(=O)c2ccc(C)cc2)N2CCOCC2)cc1` (stereo not shown), `COc1ccc(CCNC(=O)CSc2nnc3ccc(-c4ccncc4)nn23)cc1` is lower in “hERG current change (%, negative = inhibition) at 10uM” value: -19.3% for the first, -20.7% for the second.

Compared with `CCOC(=O)N1CCC(N2C(=O)c3ccc(C(=O)Nc4ccc(F)cc4F)cc3C2=O)CC1`, `COc1ccccc1Cn1c(=S)[nH]c2cc(C(=O)N3CCC(C(N)=O)CC3)ccc2c1=O` is higher in “hERG current change (%, negative = inhibition) at 10uM” value: 6.75% for the first, 27.4% for the second.

Compared with `COc1cccc(/C=N/NC(=O)c2[nH]c(C)c(C(=O)N/N=C/c3cccc(OC)c3)c2C)c1`, `COc1cc(CNC(C)C)ccc1OCC(=O)Nc1cccc2ccccc12` is lower in “hERG current change (%, negative = inhibition) at 10uM” value: -6.59% for the first, -27.2% for the second.

Going from `COc1ccc(NC(=O)NCCC2=CCCCC2)cc1` to `Cc1nc(CNS(=O)(=O)c2ccc3c(c2)CCCC3)cs1`, the “hERG current change (%, negative = inhibition) at 10uM” value falls from 8.17% to -2.85%.

Going from `Cc1cc(F)c(F)c(C(=O)N2CCN(C)CC2)c1Cl` to `O=C(c1ccc(-c2ccc(Cl)cc2)o1)N1CCN(S(=O)(=O)c2cccs2)CC1`, the “hERG current change (%, negative = inhibition) at 10uM” value falls from 18.3% to 1.39%.

Compared with `CCCn1c(SCC(=O)Nc2ccccc2-c2ccccc2)nnc1-c1ccoc1C`, `COc1ccc(-n2c(SCC(=O)N(C)c3ccccc3)nc3c([nH]c4ccccc43)c2=O)cc1OC` is higher in “hERG current change (%, negative = inhibition) at 10uM” value: -26% for the first, 7.61% for the second.

Going from `O=C(O)/C=C\C(=O)Nc1ccc(N2CCN(c3cccc(Cl)c3)CC2)cc1` to `CCN(CC)c1ccc(C(=O)N/N=C/c2ccc(N3CCOCC3)cc2)cc1`, the “hERG current change (%, negative = inhibition) at 10uM” value rises from 10.2% to 14.9%.

First: Fc1cccc(NC(=S)NC2CCCCCCC2)c1
Second: O=C(NCC(=O)N(c1ccccc1F)C(C(=O)NC1CCCC1)c1ccncc1)c1ccco1 (stereo not shown)
The “hERG current change (%, negative = inhibition) at 10uM” value of the first is higher: 15.9% for the first, 3.52% for the second.

Compared with `Cc1ccc(/C=N/NC(=O)Cc2c(F)cccc2Cl)s1`, `CNC(=O)NC(=O)C(C)OC(=O)c1ccc(Cl)c(S(=O)(=O)Nc2ccc(F)cc2)c1` (stereo not shown) is higher in “hERG current change (%, negative = inhibition) at 10uM” value: -4.48% for the first, 8.39% for the second.

Compared with `S=C(Nc1ccc(-c2nc3ccccc3[nH]2)cc1)Nc1cccnc1`, `Cc1ccc(-c2nnc(Nc3ccc4c(c3)OCO4)c3ccccc23)cc1S(N)(=O)=O` is higher in “hERG current change (%, negative = inhibition) at 10uM” value: -40.7% for the first, -9.69% for the second.

Going from `CC1CCCC(NC(=O)C2CCN(S(=O)(=O)N3CCC4(CC3)OCCO4)CC2)C1C` (stereo not shown) to `COC(=O)c1ccc(CN2C(=O)NC3(CCC(C)CC3)C2=O)o1` (stereo not shown), the “hERG current change (%, negative = inhibition) at 10uM” value falls from -1.96% to -14.2%.

First: Nc1nc(-c2ccc3c(c2)CCC(=O)N3)cs1
Second: Cc1csc(SCCn2c(N3CCN(c4ccccc4)CC3)nc3c2c(=O)[nH]c(=O)n3C)n1
The “hERG current change (%, negative = inhibition) at 10uM” value of the first is higher: 16.5% for the first, -3.59% for the second.

Going from `O=C(NCc1ccccc1)c1onc(CSc2ccc(F)c(F)c2)c1C(=O)NCc1ccccc1` to `CCc1ccc(C(=O)OCC(=O)N(CC)c2c(N)n(Cc3ccccc3)c(=O)[nH]c2=O)cc1`, the “hERG current change (%, negative = inhibition) at 10uM” value rises from 3.32% to 18.7%.

First: CCOC(=O)C1CCN(Cc2ccc(OCc3ccccc3)cc2)CC1.O=C(O)C(=O)O
Second: CCOc1cccc(CNCc2ccc(C(=O)O)cc2)c1.Cl
The “hERG current change (%, negative = inhibition) at 10uM” value of the first is lower: -62% for the first, 23.7% for the second.

First: CCS(=O)(=O)NCc1nnc2n1-c1ccc(Cl)cc1C(c1ccccc1)=NC2
Second: Nc1ccccc1SC1CC(=O)N(Cc2ccccc2)C1=O (stereo not shown)
The “hERG current change (%, negative = inhibition) at 10uM” value of the first is higher: 12.6% for the first, 0.456% for the second.

First: O=C(O)C1Nc2c(O)cccc2C2C=CCC12 (stereo not shown)
Second: Cc1ccc2oc(=O)n(CC(=O)O)c2c1
The “hERG current change (%, negative = inhibition) at 10uM” value of the first is lower: 10.7% for the first, 23.8% for the second.

First: Cc1ccc(CNC(=O)CCc2c(C)[nH]c(=O)c(C#N)c2C)cc1
Second: Cc1ccc(Nc2c(F)c(F)c(F)c(F)c2C(=O)O)c(C)c1
The “hERG current change (%, negative = inhibition) at 10uM” value of the first is lower: 12.6% for the first, 13.1% for the second.

First: CC1(C)CC(N2CCCCC2)=CC(=[N+]2CCCCC2)C1.[I-]
Second: COc1cc(Cl)c(C)cc1NC(=O)CN1CCCCCC1
The “hERG current change (%, negative = inhibition) at 10uM” value of the first is higher: 8.09% for the first, -0.067% for the second.

Going from `[O-][n+]1ccccc1SC/C=C/c1ccccc1` to `Cc1ccccc1N/C(SCc1cccc(Br)c1)=C(/C#N)C(N)=O`, the “hERG current change (%, negative = inhibition) at 10uM” value rises from 0.271% to 20.5%.

Going from `O=S(=O)(Nc1ccc(Cc2ccncc2)cc1)c1ccc(Br)s1` to `CN(CC(=O)N1CCc2ccccc21)S(=O)(=O)c1cccs1`, the “hERG current change (%, negative = inhibition) at 10uM” value falls from -13.1% to -22%.

First: Nc1nc(SC23CC4CC(CC(C4)C2)C3)ns1
Second: CCN(C(=O)COC(=O)c1cc([N+](=O)[O-])ccc1N1CCCCC1)C1CCS(=O)(=O)C1 (stereo not shown)
The “hERG current change (%, negative = inhibition) at 10uM” value of the first is higher: 10.3% for the first, 0.233% for the second.

First: CCOC(=O)C(CC(C)C)CP(=O)(O)CNC(=O)OCc1ccccc1 (stereo not shown)
Second: COc1cc(N2CCCC2)c(OC)cc1/C=C(/C#N)c1ccc(F)cc1
The “hERG current change (%, negative = inhibition) at 10uM” value of the first is lower: 12.9% for the first, 24.5% for the second.

`Cl.ClCCN1CCN(c2ccnc3cc(Cl)ccc23)CC1` was tested, and the “hERG current change (%, negative = inhibition) at 10uM” value was -20.8%.
